# Measurements reported in paper PMC6919601, “Identification of Plasmodium dipeptidyl aminopeptidase allosteric inhibitors by high throughput screening” (PLoS ONE, 2019).
# About 230 (0.21%) of roughly 110,000 compounds showed an effect of 50% or more. The list shows a part of the results.
# Molecular target: DPAP1 (Plasmodium falciparum, UniProt Q8IIJ9)
# Test: primary screen, percent inhibition; read by cleavage of a fluorogenic dipeptide substrate; higher = more effect of the substance
# Parameters: species or system P. falciparum D10 trophozoite lysates; single well
# 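Note: 30 min substrate incubation versus DMSO and 10 µM JCP410 controls.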
# Chain of DPAP1 (Q8IIJ9 whole entry, looked up): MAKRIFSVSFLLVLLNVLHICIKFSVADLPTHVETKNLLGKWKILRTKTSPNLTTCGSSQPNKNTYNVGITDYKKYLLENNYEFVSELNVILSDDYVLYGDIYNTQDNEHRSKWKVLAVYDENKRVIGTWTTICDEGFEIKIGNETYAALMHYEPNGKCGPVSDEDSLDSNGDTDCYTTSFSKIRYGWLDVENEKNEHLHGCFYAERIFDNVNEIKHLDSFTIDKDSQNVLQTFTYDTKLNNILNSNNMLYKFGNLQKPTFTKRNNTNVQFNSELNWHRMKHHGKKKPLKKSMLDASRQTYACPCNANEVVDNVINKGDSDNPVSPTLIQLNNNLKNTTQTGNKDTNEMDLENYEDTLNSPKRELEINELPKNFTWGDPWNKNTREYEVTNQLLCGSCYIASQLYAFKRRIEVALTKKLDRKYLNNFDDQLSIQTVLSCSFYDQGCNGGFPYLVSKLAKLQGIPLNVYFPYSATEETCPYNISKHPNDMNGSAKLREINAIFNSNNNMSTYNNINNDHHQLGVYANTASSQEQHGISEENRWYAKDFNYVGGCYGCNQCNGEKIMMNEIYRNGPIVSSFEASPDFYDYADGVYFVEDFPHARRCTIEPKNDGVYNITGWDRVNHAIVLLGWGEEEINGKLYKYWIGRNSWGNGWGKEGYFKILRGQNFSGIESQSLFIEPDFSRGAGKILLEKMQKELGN
row,SMILES,% Inhibition @ 10 uM
1,O=C(Nc1ccccc1C(=O)O)c1cccc(F)c1,-1.79%
2,Cc1nc(S)c(C#N)c(-c2ccccc2)c1C(=O)Nc1ccccc1,34.5%
3,Oc1nc2c(s1)C(c1ccco1)C1C3CCC(C3)C1S2 (stereo not shown),2.63%
4,COc1ccc(S(=O)(=O)N(CC(=O)NC2CCCC2)c2ccccc2)cc1,-5.13%
5,O=C(O)CCn1nnc2ccccc21,-3.04%
6,Cc1nn(C)cc1C(=O)NCc1ccc(F)cc1,-1.65%
7,CN1C(=O)N(C)C(NC(=O)N2CCOCC2)C1NC(=O)N1CCOCC1 (stereo not shown),10.8%
8,N#CC1=C(N)Oc2nc(O)nc(O)c2C1c1cccc(Cl)c1 (stereo not shown),-0.366%
9,Cc1cc(O)n2cnnc2n1,-2.4%
10,FC(F)(F)c1nc(Nc2cccc(Cl)c2)sc1-c1ccccc1,-3.48%
11,O=S1(=O)C(c2ccccc2)=CC1c1ccccc1 (stereo not shown),-1.08%
12,O=C1c2cccc3cccc(c23)N1CN1CCCCC1,-1.22%
13,CCOC(=O)N1CCN(C(=O)CN2N=C(c3ccc(C)cc3)CCC2=O)CC1,0.514%
14,NC(=O)c1c(NC(=O)C2CC2)sc2c1CCCCCC2,5.39%
15,CN1C(=O)/C(=C\c2ccc(O)c(Br)c2)S/C1=N/c1ccccc1,9.72%
16,Cc1cc(C(F)(F)F)nc(NCCc2ccccc2)n1,6.66%
17,O=C(O)c1ccc2c(c1)C(=O)N(Cc1ccccc1)C2=O,0.583%
18,c1ccc(N2CCN(Cc3ccsc3)CC2)cc1,-5.5%
19,CCN(CC)CCCNC(=O)c1cc2nc(-c3ccccc3)cc(C(F)(F)F)n2n1,-1.52%
20,COc1ccc(OC)c(CN2CCN(Cc3ccccc3Br)CC2)c1,-8.37%
21,CC(=O)Nc1cccc2oc3ccccc3c12,-4.16%
22,CCOc1cccc(OCC)c2c(C)[n+](CC3CCCO3)c(C)c1-2 (stereo not shown),2.35%
23,CCOC(=O)c1c(C)n(C)c2cc(Br)c3oc(O)nc3c12,0.847%

row,SMILES,% Inhibition @ 10 uM
1,Cc1ccc(CC(=O)Nc2cc(C)on2)cc1,0.565%
2,CCOc1ccc(C2C=C(c3ccc(CC)cc3)Nc3nnnn32)cc1OC (stereo not shown),1.73%
3,COc1cc(N2CCCC2)c(OC)cc1/C=C1/NC(=O)N(c2cccc(Cl)c2)C1=O,-5.81%
4,c1ccc(CNc2ncnc3[nH]cnc23)cc1,-4.27%
5,CCOc1ccc(-n2nc3ccc(NC(=O)c4ccc5c(c4)OCCO5)cc3n2)cc1,17.9%
6,COc1cccc(-c2nc(-c3ccccc3)no2)c1,4.57%
7,C=CCNc1cc(C)oc(=O)c1C(=O)CCC,3%
8,CC(C)CC(=O)N1CCN(Cc2ccc(Cl)cc2)CC1,1.27%
9,Cc1ccc(CN(C(=O)c2oc3ccc(Cl)cc3c2C)C2CCS(=O)(=O)C2)o1 (stereo not shown),2.19%
10,COC(=O)Cn1cnc(=O)c(C#N)c1C,4.08%
11,CC1CCCN(C(=O)Cc2noc3ccccc23)C1 (stereo not shown),-0.205%
12,COc1ccc2[nH]cc(CCC(=O)O)c2c1,-2.15%
13,COc1nc(-c2ccccc2)ccc1-c1noc(-c2ccccc2)n1,-1.33%
14,COc1ccc2[nH]c3c(c2c1)CCNC31CCC(C(C)(C)C)CC1 (stereo not shown),-1.85%
15,CS(=O)(=O)c1ncc(Cl)c(C(=O)N(Cc2ccc(Cl)cc2)C2CCS(=O)(=O)C2)n1 (stereo not shown),-2.85%
16,CC1CC(C)CN(C(=O)CSc2ncccc2C(=O)O)C1 (stereo not shown),-2.26%
17,Fc1ccc(N2CCN(Cc3cccc(C(F)(F)F)c3)CC2)cc1,1.55%
18,COCCCn1c(=N)c(C(=O)OC)cc2c(=O)n3cc(C)ccc3nc21,-3.27%
19,COC(=O)c1cnn2c1NCN(Cc1ccc3c(c1)OCO3)C2,3.96%
20,CCOc1ccc(C2CC(=O)N3CN(CCc4ccccc4)CSC3=C2C#N)cc1 (stereo not shown),71.1%
21,O=C(CN1C(=O)S/C(=C/c2cccn2-c2ccc(O)cc2)C1=O)N1CCN(c2ccccc2)CC1,2.22%
22,COc1ccc(C(=O)Nc2nc3nc(C)cc(C)n3n2)cc1,0.401%
23,O=C(c1ccccc1)C12CN3CN(CN(C3)C1)C2,-6.65%

row,SMILES,% Inhibition @ 10 uM
1,O=C(CCn1nc(-c2ccccc2)ccc1=O)NC1CCCCC1,-7.35%
2,O=C(CCCc1nnc2n(Cc3ccccc3)c(=O)c3ccccc3n12)NC1CCCCC1,-1.71%
3,CC(=O)Nc1nc2ccccc2n1CCN1CCCC1,-5.11%
4,O=C(c1ccncc1)N1CCN(Cc2cccc(Cl)c2)CC1,-5.66%
5,O=c1[nH]c(/C=C/c2ccccc2Cl)c([N+](=O)[O-])c(=O)[nH]1,-4.58%
6,COC(=O)c1cc(S(=O)(=O)N2CCCN(Cc3ccc(F)cc3)C2)c[nH]1,6.31%
7,CCOC(=O)c1c(NC(=O)c2cc(OC)c(OC)c(OC)c2Br)sc2c1CCCC2,5.23%
8,COc1ccc(NC(=O)C(Cc2cc(C)cc(C)c2)C(C)C(=O)O)cc1 (stereo not shown),1.92%
9,O=c1c2c(-c3ccccc3)csc2nc2c3ccccc3c(N3CCN(CCO)CC3)nn12,0.323%
10,Cn1cc(S(=O)(=O)N2CCOCC2)cc1C(=O)NCc1ccc(Cl)cc1,-4.05%
11,COc1ccc2nc3sc(C(=O)NCc4ccc5c(c4)OCO5)cc3cc2c1,-1.83%
12,O=C1NC(=O)N(c2ccccc2)C(=O)/C1=C\Nc1ccccc1C(=O)O,-4.92%
13,COc1ccc(CN2CCN(C3CCCCC3C)CC2)c(OC)c1OC (stereo not shown),0.131%
14,CCS(=O)(=O)N1CCCC(C(=O)NC2CCCC(C)C2C)C1 (stereo not shown),-1.79%
15,CCCCn1c2ccccc2c2nnc(S)nc21,36.5%
16,Cc1ccccc1Oc1cc(-n2nc(C)c(C#N)c2N)ncn1,-0.68%
17,CCN1/C(=c2/s/c(=C3/C(=O)N(c4ccccc4)N=C3C)n(CC)c2=O)C=Cc2ccccc21,1.4%
18,OCC1CCCCN1C1CCN(CCc2ccccc2)CC1 (stereo not shown),0.217%
19,O=C(NCC1CCCO1)c1c(NC(=O)c2cccc3ccccc23)sc2c1CCCC2 (stereo not shown),-1.52%
20,COC(=O)c1ccc(/C(O)=C(\C#N)c2nc3ccccc3s2)cc1,1.39%
21,CCOCCCNC(=O)c1cc(C)nn1-c1ccccc1,-1.89%
